Hit rate of the full screen: of about 310,000 compounds, about 14,000 (4.5%) showed an effect of 50% or more. The effect is printed as a negative number. The list shows a part of the results.
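Further: peak tail current of the secondary pulse compared with the same well before compound.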

human ether-à-go-go-related gene (hERG) potassium channel, sequence (Q12809 whole entry, looked up): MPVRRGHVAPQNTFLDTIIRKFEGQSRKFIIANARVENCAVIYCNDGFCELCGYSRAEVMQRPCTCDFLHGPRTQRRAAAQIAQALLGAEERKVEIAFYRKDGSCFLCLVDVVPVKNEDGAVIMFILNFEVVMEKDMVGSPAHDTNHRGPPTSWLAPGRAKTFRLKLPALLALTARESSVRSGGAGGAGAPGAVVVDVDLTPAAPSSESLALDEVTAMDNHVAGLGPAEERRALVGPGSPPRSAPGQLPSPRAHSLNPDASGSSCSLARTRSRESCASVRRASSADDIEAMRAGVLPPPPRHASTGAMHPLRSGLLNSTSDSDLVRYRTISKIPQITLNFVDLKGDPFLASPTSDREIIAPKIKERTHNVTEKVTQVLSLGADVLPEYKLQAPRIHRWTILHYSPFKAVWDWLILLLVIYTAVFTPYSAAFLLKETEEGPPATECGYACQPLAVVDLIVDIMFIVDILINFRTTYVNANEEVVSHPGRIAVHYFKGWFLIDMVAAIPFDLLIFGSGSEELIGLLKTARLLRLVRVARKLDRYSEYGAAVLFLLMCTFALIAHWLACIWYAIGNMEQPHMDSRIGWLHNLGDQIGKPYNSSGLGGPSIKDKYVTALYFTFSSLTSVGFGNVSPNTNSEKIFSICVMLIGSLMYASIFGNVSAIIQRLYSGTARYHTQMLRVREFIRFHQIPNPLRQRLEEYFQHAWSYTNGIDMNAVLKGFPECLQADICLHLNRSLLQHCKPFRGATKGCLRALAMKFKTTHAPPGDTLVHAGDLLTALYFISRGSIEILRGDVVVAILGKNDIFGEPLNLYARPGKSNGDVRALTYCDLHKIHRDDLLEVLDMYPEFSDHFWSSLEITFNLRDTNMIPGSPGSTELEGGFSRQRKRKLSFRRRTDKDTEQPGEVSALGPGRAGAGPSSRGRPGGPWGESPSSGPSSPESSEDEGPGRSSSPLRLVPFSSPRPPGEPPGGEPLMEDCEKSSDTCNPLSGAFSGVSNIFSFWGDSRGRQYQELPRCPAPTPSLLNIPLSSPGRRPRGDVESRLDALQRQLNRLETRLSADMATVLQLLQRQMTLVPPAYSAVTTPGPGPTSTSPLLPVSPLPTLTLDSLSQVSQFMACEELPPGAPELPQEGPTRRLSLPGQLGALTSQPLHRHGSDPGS

This assay has as its target human ether-à-go-go-related gene (hERG) potassium channel (human, UniProt Q12809). The assay can be described thus: primary screen, population patch clamp on CHO cells stably expressing hERG.
Take `CC(=O)Nc1ccc(CN2CCN(CCc3ccccc3)C(CCO)C2)cc1` (stereo not drawn): the “hERG current change (%, negative = inhibition) at 10uM” value is recorded as -51.8%.
The value for `Cc1ccc(C(=O)Nc2ccc(S(=O)(=O)N3CCc4ccccc43)cc2)o1` was -1.01%; that for `O=C(COc1nsnc1N1CCOCC1)Nc1ccc(Br)cc1` was -2.61%; that for `CCC1(C)Cc2c(sc3nnn(CC(=O)Nc4ccc(C)cc4)c(=O)c23)CO1` (stereo not drawn) was 10.1%.
The value for `COC(=O)C1=C(C)N(CCC2=CCCCC2)C(=O)C1` was 1.46%.
The value for `CCN1CCC(NC(=O)Nc2ccccc2C(=O)OC)CC1` was 4.98%; that for `Cc1nn(Cc2ccccc2)c(Cl)c1C(=O)OCC(=O)NC(=O)NC12CC3CC(CC(C3)C1)C2` was 11.5%; that for `C/C(=C\c1cccc(Cl)c1)C(=O)c1c(C)cc(C)[nH]c1=O` was -4.91%.
As for `CCCCCCC(=O)Nc1nc(C)c(-c2csc(Nc3ccccc3OC)n2)s1`, the “hERG current change (%, negative = inhibition) at 10uM” value is recorded as 6.89%.
For the compound `CCn1c(C)nc2cc(OC)ccc21`, the “hERG current change (%, negative = inhibition) at 10uM” value turned out to be 5.93%.
The value for `COc1cc(NC2c3ccccc3C(=O)N2c2cc(C)ccn2)cc(OC)c1OC` (stereo not drawn) was 6.98%; that for `Cn1c(CC(=O)Nc2ccccc2)nnc1SCC(=O)c1ccccc1` was 4.96%.
Consider `COc1ccccc1C(=O)Nc1nnc(S(=O)(=O)N2CCCCC2)s1`, for which the “hERG current change (%, negative = inhibition) at 10uM” value turned out to be 12.8%.
The value for `CN(CC(=O)Nc1ccc(Cl)c(Cl)c1)C(=O)C1CCCC1` was -11.6%; that for `Cl.N=c1n(CCO)c2ccccc2n1Cc1ccc(Cl)cc1` was -40.1%; that for `O=C(Nc1cc(Cl)cc(Cl)c1)C1CC(=O)N(C2CCCC2)C1` (stereo not drawn) was -16.5%.
The value for `O=P(NS(=O)(=O)c1ccc(Cl)cc1)(Oc1ccccc1)Oc1ccccc1` was -6.11%; that for `CC(=O)Nc1ccc(-n2c(C)nc(=O)c(-c3ccccc3)c2C)cc1` was 13.7%; that for `CCOC(=O)c1ccc(OCCOc2ccccc2C)cc1` was 24%.
As for `COc1ccc(NC(=O)c2cc(-c3ccncc3)nc3ccc(Br)cc23)cc1OC`, the “hERG current change (%, negative = inhibition) at 10uM” value was -0.371%.
In the case of `CCN(CC)S(=O)(=O)c1cc(NC(=O)c2n[nH]c(=O)c3ccccc23)ccc1C`, the “hERG current change (%, negative = inhibition) at 10uM” value was 18.7%.
For the compound `CCc1ccc(Nc2nnc(SCC(=O)N(C)C3CCS(=O)(=O)C3)s2)cc1` (stereo not drawn), the “hERG current change (%, negative = inhibition) at 10uM” value is listed as -15.3%.
The value for `NS(=O)(=O)c1ccc(NC(=O)c2ccc3c(c2)OCO3)cc1` was 11.3%; that for `CCCN1CNC(=S)N(c2cccc(C)c2)C1` was 17%; that for `Cc1oc(-c2ccoc2)nc1CN(Cc1ccccc1)CC1CC1` was -1.36%.
The value for `Cc1ccc2c(Cl)c(C)c(N3CCCCC3)nc2n1` was -10.7%.
For `N#Cc1cccc(NC(=O)CNc2cccc(S(=O)(=O)N3CCCCC3)c2)c1`, the “hERG current change (%, negative = inhibition) at 10uM” value was -32%.
The value for `CCOP(=S)(OCC)SCCSCC` was 4.35%; that for `CC(=O)C(CC(=O)N1CCCc2ccccc21)C(=O)Nc1ccc(F)cc1` (stereo not drawn) was -8.85%; that for `CC(C)(C)c1ccc(C(=O)C=[N+]=[N-])cc1` was -23.7%.
The value for `O=C(Nc1ccc(CN2CCCCC2)cc1)Nc1ccccc1Cl` was -59%; that for `O=S(=O)(c1ccc(Br)s1)N1CCNCC1` was -4.05%.
The value for `CC(C)[C@H](NC(=O)c1ccco1)C(=O)OCC(=O)N1CC(=O)Nc2ccccc21` was 13.3%; that for `CC1CN(C(=O)c2ccccc2)c2ccccc2NC1=O` (stereo not drawn) was 18.5%.
Turning to `O=C(COC(=O)c1ccccc1F)NNC(=O)c1ccccc1`, the “hERG current change (%, negative = inhibition) at 10uM” value came to 8.17%.
With `CCC1Nc2ncnc(N3CCN(c4ccccc4)CC3)c2N(Cc2ccc(Cl)cc2)C1=O.O=C(O)C(F)(F)F` (stereo not drawn), the “hERG current change (%, negative = inhibition) at 10uM” value is -17.4%.
The value for `Cc1cc(C)n(-c2ccc(NC(=O)C3CCCCN3C(=O)c3cc(C)oc3C)cc2)n1` (stereo not drawn) was -30.1%; that for `Cc1cccc(N2CCN(C(=O)CCC(=O)N3CCOc4ccc(Cl)cc43)CC2C)c1` (stereo not drawn) was -21%.
The value for `O=C(Nc1ccccc1)c1cccc(C(=O)Nc2ccccc2)n1` was 24.8%.
The value for `Cc1cc(C)n(C(=O)c2ccc([N+](=O)[O-])cc2[N+](=O)[O-])n1` was -10.9%; that for `O=C(CCc1nc(-c2ccc(Cl)cc2)no1)NCC1CCCO1` (stereo not drawn) was 20.4%.
With `CCCCOCP(=O)(CCCC)COCCCC`, the “hERG current change (%, negative = inhibition) at 10uM” value is -2.52%.
The value for `O=S(=O)(Nc1nc(SCc2ccc(Cl)cc2)n[nH]1)c1ccccc1` was 6.68%; that for `CCn1c(O)c(/C=N/N=C/c2ccc(OC)cc2)c2cc(C3=NNC(=O)CC3)ccc21` was 0.571%; that for `Cc1cc2oc(=O)cc(CN3CCc4ccccc43)c2cc1Cl` was 16.4%.

For the origin of these results see paper PMC4336329 (PLoS ONE, 2015).
